{
  "source": "patent US10561143B2",
  "about": "“Fungicidal composition having synergistic effect” (JIANGSU HUIFENG AGROCHEMICAL CO., LTD., priority 2013, dated 2020)",
  "test_system": "late blight pathogens of potato",
  "type": "in vivo",
  "conditions": "standard benziothiazolinone",
  "note": "Read-outs that look alike come from different tables or passages of the source.",
  "data": [
    {"smiles": "CC(C)OC(=O)N[C@H](C(=O)N[C@H](C)c1nc2ccc(F)cc2s1)C(C)C", "note": "[Benthiavalicarb-isopropyl]", "values": [
      {"measurement": "ATI (actual toxicity index)", "setting": "Table 13", "value": 92.422}
    ]},
    {"smiles": "O=c1[nH]sc2ccccc12", "note": "[Benziothiazolinone]", "values": [
      {"measurement": "ATI (actual toxicity index)", "setting": "Table 11", "value": 100.00},
      {"measurement": "ATI (actual toxicity index)", "setting": "Table 12", "value": 100.00},
      {"measurement": "ATI (actual toxicity index)", "setting": "Table 13", "value": 100.000},
      {"measurement": "ATI (actual toxicity index)", "setting": "Table 14", "value": 100.00},
      {"measurement": "ATI (actual toxicity index)", "setting": "Table 15", "value": 100.00}
    ]},
    {"smiles": "O=C(Nc1ccccc1-c1ccc(Cl)cc1)c1cccnc1Cl", "note": "[Boscalid]", "values": [
      {"measurement": "ATI (actual toxicity index)", "setting": "Table 12", "value": 88.43}
    ]},
    {"smiles": "CSC1=N[C@@](C)(c2ccccc2)C(=O)N1Nc1ccccc1", "note": "[Fenamidone]", "values": [
      {"measurement": "ATI (actual toxicity index)", "setting": "Table 15", "value": 93.01}
    ]},
    {"smiles": "CCC(C)(NC(=O)c1cc(Cl)c(C)c(Cl)c1)C(=O)CCl", "note": "(stereo not shown) [Zoxamide]", "values": [
      {"measurement": "ATI (actual toxicity index)", "setting": "Table 14", "value": 94.85}
    ]},
    {"smiles": "COC(=O)N(OC)c1ccccc1COc1ccn(-c2ccc(Cl)cc2)n1", "note": "[pyraclostrobin]", "values": [
      {"measurement": "ATI (actual toxicity index)", "setting": "Table 11", "value": 130.49}
    ]}
  ]
}
